Several values for one entry are separate records, joined by “and”; a condition that tells them apart may be missing. Equal entries are not always repeated. Hit rate of the full screen: of about 48,000 compounds, about 1,200 (2.5%) were called active. About 2% were inconclusive and are not listed.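 The calls were made as follows: active = activation of at least 60% and not above a set upper limit (about 1 call in 100 departs from these limits); inconclusive = activation of 40% to 60%, or above that upper limit; inactive = activation under 40%.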 This is one part of the list.

In this assay the target is Probable G-protein coupled receptor 32 (Homo sapiens) (UniProt O75388). Briefly: qHTS for Agonists of Human Resolvin D1 Receptor DRV1. Also: 0% is about no effect. The following applies: CHO-K1 GPR32 beta-arrestin PathHunter luminescence, 90 min; at 76.9 µM; stronger effect = higher value; zero percent set by DMSO-only wells. The essentials: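 CHO-K1 cells stably expressing ProLink-tagged GPR32 and Enzyme Activator-tagged beta-arrestin were seeded at 2,500 cells/well overnight, exposed to compounds for 90 min at 37 °C, then read by beta-Gal complementation chemiluminescence after 1 h detection reagent.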
UniProt O75388, sequence (O75388 whole entry, looked up): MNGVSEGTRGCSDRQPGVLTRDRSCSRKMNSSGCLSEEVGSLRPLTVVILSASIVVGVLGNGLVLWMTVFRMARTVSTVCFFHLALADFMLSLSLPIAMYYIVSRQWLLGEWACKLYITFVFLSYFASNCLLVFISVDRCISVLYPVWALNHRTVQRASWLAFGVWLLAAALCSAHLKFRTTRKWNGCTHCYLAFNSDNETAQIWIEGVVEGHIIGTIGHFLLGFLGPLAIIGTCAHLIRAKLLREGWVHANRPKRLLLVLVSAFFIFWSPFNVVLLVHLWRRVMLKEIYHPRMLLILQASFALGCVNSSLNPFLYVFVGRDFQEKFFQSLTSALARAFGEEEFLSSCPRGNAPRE
A general note: qHTS replaces the single test concentration by a dilution series.
For the compound `Cn1cnc2c(=O)oc3ccc(S(=O)(=O)N4CCN(c5ccccc5)CC4)cc3c21`, the activation is inactive: -5.35%.
The same measure for `Cc1nn(-c2ccccc2)c(-n2cccc2)c1C(=O)NCc1ccccc1Cl`: inactive: 2.24%; for `CC1CCN(S(=O)(=O)c2ccc3ncn(CC(=O)Nc4ccccc4C(F)(F)F)c(=O)c3c2)CC1`: inactive: 25.4%; for `CC(=O)Nc1cc(C(=O)NCc2ccc(F)cc2)ccc1Sc1ccc(C)cc1`: inactive: -14.8%.
With `CCOC(=O)CC(NC(=O)Cn1nnc(-c2ccc(C(F)(F)F)cc2)n1)c1ccccc1Cl` (stereo not drawn) the figure was inactive: 8.07%.
The same measure for `COc1ccc(C)cc1NC(=O)c1cc2c(s1)-c1ccccc1SC2`: inactive: -17.6%.
As to `CCOC(=O)C1CCN(C(=O)CSc2n[nH]c(-c3ccccc3Cl)n2)CC1`, the activation is inactive: -11.2%.
The same measure for `CN(C)c1ccc(C(CNC(=O)Cc2ccc(Cl)cc2)N2CCOCC2)cc1` (stereo not drawn): inactive: -9.94%; for `Cc1cc(OCC(=O)Nc2cnn(CCCC(=O)O)c2)ccc1Cl`: active: 82.2%.
The same measure for `O=C1CN(C(=O)c2ccc(Cl)cc2Cl)C(c2ccc(F)cc2)c2cc(F)ccc2N1` (stereo not drawn): inactive: -13%; for `CCn1cc(C(=O)NCCCN2CCC(C)CC2)c(=O)c2cc(S(=O)(=O)N(C)C3CCCCC3)ccc21`: inactive: -2.66%; for `CCN(CC)CCNC(=O)c1ccc2c(c1)NC(=O)C(CS(=O)(=O)Cc1ccc(F)cc1Cl)N2` (stereo not drawn): inactive: 9.33%.
With `COc1ccc(C(=O)c2oc3ccccc3c2NC(=O)COc2cccc(C)c2)cc1` the figure was inactive: 2.04%.
In the case of `Cc1nn(C)c2c1c(-c1ccccc1)cc(=O)n2C(C)C(=O)NCCc1ccc(Cl)cc1` (stereo not drawn), the activation was inactive: -18.5%.
With `CN1CCC[C@@H]1Cc1c[nH]c2ccc(CCS(=O)(=O)c3ccccc3)cc12` the figure was inactive: -0.895%.
With `COc1ccc(S(=O)(=O)NCC(c2ccco2)N2CCN(c3ccccc3F)CC2)cc1OC` (stereo not drawn) the figure was inactive: -22%; with `CC(C)c1nc2ccc(C(=O)NCc3ccc(F)cc3)cc2o1`, inactive: -11.1%; with `COc1ccc(-c2ccc3c(N)c(C(=O)Nc4ccc(C)cc4C)sc3n2)cc1OC`, inactive: 20.8%.
With `CCc1cccc(NC(=O)C2CCCN2S(=O)(=O)c2ccc3c(c2)n(C)c(=O)c(=O)n3C)c1` (stereo not drawn) the figure was inactive: 1.59%; with `CC1CCN(C(=O)c2ccccc2NC(=O)c2nsc3ccccc23)CC1`, inactive: -12.9%; with `COc1ccccc1N1CCN(C(=O)c2nc(-c3ccc(C)cc3)n3c2CCCCC3)CC1`, inactive: 1.35%.
Regarding `COc1ccc(CNC(=O)CCc2c(C)nn(-c3ccc(N4CCCC4)nn3)c2C)c(OC)c1`, the activation is inactive: -8.82%.
With `CCOc1ccc(-c2cc(NC(=O)c3c(F)cccc3F)c(C(=O)OC)s2)cc1` the figure was inactive: 2.19%; with `COc1ccc(-n2c(SCC(=O)Nc3cc(C)cc(C)c3)nc3c(oc4ccccc43)c2=O)cc1`, inactive: -35.4%; with `COC(=O)c1c(NC(=O)C(C)Oc2ccc(Cl)cc2Cl)sc2c1CCCC2` (stereo not drawn), inactive: -6.79%.
For `Cc1ccc(Cl)cc1NC(=O)c1cnn2c(C(F)F)cc(-c3ccccc3)nc12`, the activation is inactive: 5.52%.
The same measure for `COc1ccc(NC(=O)c2cc(S(=O)(=O)N3CCCCC3)c[nH]2)cc1Cl`: inactive: 24.7%; for `Cc1cc(NC(=O)CC(C)C)cc(-c2nc3ncccc3o2)c1O`: inactive: -7.36%.
Consider `CC(C)[N+](C)(CCOC(=O)C1c2ccccc2Oc2ccccc21)C(C)C`, for which the activation was inactive: -0.105% and inactive: -5.69%.
For `Cc1cc(C)c(/C=C/c2onc(C)c2S(=O)(=O)N2CCC(C(=O)NCC(C)c3ccccc3)CC2)c(C)c1` (stereo not drawn), the activation was inactive: -12.1%.
The same measure for `COc1cccc(C(=O)N2CC(=O)Nc3ccc(C)cc3C2c2ccc(F)cc2)c1OC` (stereo not drawn): inactive: -10.1%; for `Cc1ccc(Nc2cc(=O)[nH]c(=O)[nH]2)cc1C`: inactive: -25.6%; for `COc1ccc(NC(=O)CC2C(=O)N(c3ccc(OC)cc3)C(=O)N2C2CCCCC2)cc1` (stereo not drawn): inactive: -4.44%.
With `Cc1c(Cl)cccc1-n1c(SCC(=O)NCc2ccccc2)nc2n[nH]c(C)c2c1=N` the figure was inactive: -6.98%.
For `Cc1ccc(C(=O)N2c3ncnn3C3(CCCCC3)[C@@H]3CCCC[C@@H]32)cc1`, the activation was inactive: -11.1%.
Regarding `COc1ccc(Cl)cc1NC(=O)CSc1nnc(C)n2c1cc1sccc12`, the activation was inactive: 0.483%.
The same measure for `CCCOc1ccc(CNC(=O)C(C)n2nc(C)n3c(cc4occc43)c2=O)cc1` (stereo not drawn): inactive: -19.7%; for `Cc1ccc2oc(=O)c(-c3nc4ccc(C)cc4[nH]3)cc2c1`: inactive: -1.21%; for `COc1ccc(OC)c(CNC(=O)CCc2c(C)nc3c(c2C)c(=O)n(C)c(=O)n3C)c1`: inactive: -4.31%.
The same measure for `CCC1CCCCN1S(=O)(=O)c1ccc(NC(=O)c2nc(SC)ncc2Cl)cc1` (stereo not drawn): inactive: -12.5%.
The same measure for `Cc1oc2ncnc(N3CCCCC3)c2c1C(=O)Nc1cccc(Cl)c1C`: inactive: -29.8%; for `CCc1ccccc1NS(=O)(=O)c1ccc(-c2coc(C)n2)cc1`: inactive: 47%; for `Cc1nc2cc(-c3ccccc3)nn2c(C)c1CCC(=O)NCCc1ccccc1`: inactive: 37.4%.
With `Cn1c2c(c(=O)n(C)c1=O)C(c1cc(Br)ccc1F)CC(=O)N2` (stereo not drawn), the activation was inactive: 0.371%.
Consider `COc1ccc(Nc2cc(C(=O)NCCCN(C)c3ccccc3)c3ccccc3n2)c(OC)c1`, for which the activation was inactive: -6.79%.
With `CCCOCc1cc(CN2CCN(c3cccc(Cl)c3)CC2)c(O)c2ncccc12` the figure was inactive: -7.34%; with `Cc1cccc(C)c1NC(=O)c1c(C)oc2c1C1=NCCN1C=N2`, inactive: 20.4%; with `COc1ccc(CC(=O)Nc2ccc(-c3nc4ccccc4s3)cc2Cl)cc1OC`, inactive: 9.22%.
With `Cc1ccc2[nH]c(CSc3nnc(NC(=O)COc4ccccc4C)s3)cc(=O)c2c1` the figure was inactive: 7.98%; with `COC(=O)c1ccc(NC(=O)c2cc(S(=O)(=O)N3CCC(C)CC3)cn2C)cc1`, inactive: -0.113%; with `CCOC(=O)c1ccc(Nc2nc(N)c3cc(OC)c(OC)cc3n2)cc1`, inactive: 4.48%.
The same measure for `Cc1cccc(CCNC(=O)c2ccc3c(c2)nc2n3CCOC2)c1`: inactive: -10.5%; for `CCCOc1ccc(NC(=O)CC2C(=O)N(c3ccc(C)cc3)C(=O)N2Cc2cccc(OC)c2)cc1` (stereo not drawn): inactive: -11.9%; for `COc1ccc(NC(=O)CN2C(=O)c3ccccc3Sc3ccc(C(=O)N4CCOCC4)cc32)c(OC)c1`: inactive: -14.3%.
Turning to `O=c1c2cc3c(nc2ncn1Cc1ccc(Cl)cc1)CCCC3`, the activation was inactive: -5.88%.
With `CCOC(=O)C1CCN(c2c(C(=O)c3ccc(C)cc3)cnc3ccc(F)cc23)CC1` the figure was inactive: 5.24%; with `CCOc1ccccc1NC(=O)CN1CCCN(Cc2cccc(Cl)c2)S1(=O)=O`, inactive: -15.4%; with `COc1cc(NC(=O)c2cccc(F)c2)ccc1NC(=O)c1cc2ccccc2o1`, inactive: -3.17%.
The same measure for `COc1cc(C(=O)OCc2cc(=O)n3nc(C(C)C)sc3n2)cc(OC)c1OC`: inactive: 12.2%.
The same measure for `CCc1ccc(NC(=O)c2nnn(Cc3cccc(C(F)(F)F)c3)c2N)cc1`: inactive: 23.8%.
In the case of `COc1cccc(CNC(=O)c2ccc3c(c2)nc2n3CCCCC2)c1OC`, the activation is inactive: -18.2%.
The same measure for `COc1cccc(CNC(=O)COCc2cc(-c3ccc4c(c3)OCO4)on2)c1`: inactive: -11.9%; for `CC1CCC2(CC1)N=C(c1ccccc1)C(=O)N2CC(=O)Nc1ccc(F)c(Cl)c1` (stereo not drawn): inactive: -43.3%.
The same measure for `Cc1nc2ncnn2c(C)c1CCC(=O)N1CCN(c2cccc(Cl)c2)CC1`: inactive: 22.3%.
The same measure for `CCOC(=O)c1cccc(NS(=O)(=O)c2cc3[nH]c(=O)c(=O)[nH]c3cc2C)c1`: inactive: 20%.
As to `Cc1cccc(-n2c(C)nc3cc(C(=O)NC4CCCCCC4)ccc32)c1`, the activation was inactive: -4.98%.
The same measure for `CCc1ccc(NC(=O)C2=CC(c3ccc4c(c3)OCO4)=NS(=O)(=O)N2C)cc1`: inactive: -31%; for `COc1ccc(NC(=O)Nc2c[nH]c(=O)[nH]c2=O)c(OC)c1`: inactive: -1.03%; for `CCOc1ccc(-c2nc(SCC(=O)NCCCOC)c(-c3ccccc3)[nH]2)cc1`: inactive: -32.7%.
With `CCn1c(CN2CCOCC2)nc2cc(NC(=O)c3ccc([N+](=O)[O-])cc3)ccc21` the figure was inactive: 4.09%; with `COc1ccccc1CNC(=O)CSc1ncc2c(n1)-c1cc(Cl)ccc1N(Cc1ccccc1)S2(=O)=O`, inactive: 8.23%.
Consider `Cc1c(C(=O)N(Cc2ccc(Cl)cc2)CC2CCCO2)oc2ccc(F)cc12` (stereo not drawn), for which the activation is inactive: -26.9%.
With `CSc1ccc(CC2C(=O)Nc3ccccc32)cc1` (stereo not drawn) the figure was inactive: -19.8%.
With `COc1ccccc1Oc1c(NS(=O)(=O)c2ccc(C(C)(C)C)cc2)nc(-c2ncccn2)nc1OCCO` the figure was inactive: -9.46%; with `O=C(Cc1ccccc1F)N1CCC(c2nc3c(nnn3Cc3ccc(F)cc3)c(=O)[nH]2)CC1`, inactive: -0.455%.
As to `O=C(CS(=O)(=O)c1cccc2nsnc12)Nc1cc(F)ccc1F`, the activation was inactive: 11.4%.
With `CCCCSCCCNC(=O)c1cn(C)c2ccc(S(=O)(=O)N3CCCC3)cc2c1=O` the figure was inactive: 7.67%.
With `Cc1cc(C)cc(OCC(=O)N(Cc2ccc(Cl)cc2)CC2CCCO2)c1` (stereo not drawn) the figure was inactive: -21.9%; with `CCOC(=O)c1c(S(=O)(=O)N2CCC(C(=O)NCc3ccccc3OC)CC2)c(C)n(C)c1C`, inactive: -8.65%; with `Cc1ccc(CNC(=O)CCCCn2c(=O)c3ccccc3n(Cc3ccc(C)cc3)c2=O)cc1`, inactive: -5.07%.
The same measure for `O=C(NC1CCCC1)c1ccc2c(=O)n(Cc3ccccc3)c(SCc3ccccc3)nc2c1`: inactive: -9.01%; for `Cc1ccc(-n2nc(C(=O)Nc3ccc(C)c(F)c3)c(=O)n(C)c2=O)cc1`: inactive: -10.6%.
For `COc1ccc(-c2nc3ccc(C)cn3c2Nc2ccc3c(c2)OCO3)cc1`, the activation was inactive: -10.3%.

These data come from PubChem BioAssay AID1346428 (National Center for Advancing Translational Sciences (NCATS), 2018).
